Data taken from publication PMC4752240.
No constants are given. Whether binding was seen depends on the method and setting. For some of these results: Binding seen in cells or lysates may run through a third protein. Some binding calls cover weakened binding; strength is not graded here. Sequences can lack the tags named with a protein.

Assays:
[1] = target: T1, CDC27b (HOBBIT/APC3b), yeast two-hybrid fusion (UniProt Q8LGU6); assay: two-hybrid; bait fused with the GAL4 DNA binding domain (pDEST32), prey fused with the GAL4 activation domain (pDEST22); mating of yeast strains AH109 and Y187; growth on -His (weak interaction) or -His -Ade (strong interaction); three replicates
T1 sequence: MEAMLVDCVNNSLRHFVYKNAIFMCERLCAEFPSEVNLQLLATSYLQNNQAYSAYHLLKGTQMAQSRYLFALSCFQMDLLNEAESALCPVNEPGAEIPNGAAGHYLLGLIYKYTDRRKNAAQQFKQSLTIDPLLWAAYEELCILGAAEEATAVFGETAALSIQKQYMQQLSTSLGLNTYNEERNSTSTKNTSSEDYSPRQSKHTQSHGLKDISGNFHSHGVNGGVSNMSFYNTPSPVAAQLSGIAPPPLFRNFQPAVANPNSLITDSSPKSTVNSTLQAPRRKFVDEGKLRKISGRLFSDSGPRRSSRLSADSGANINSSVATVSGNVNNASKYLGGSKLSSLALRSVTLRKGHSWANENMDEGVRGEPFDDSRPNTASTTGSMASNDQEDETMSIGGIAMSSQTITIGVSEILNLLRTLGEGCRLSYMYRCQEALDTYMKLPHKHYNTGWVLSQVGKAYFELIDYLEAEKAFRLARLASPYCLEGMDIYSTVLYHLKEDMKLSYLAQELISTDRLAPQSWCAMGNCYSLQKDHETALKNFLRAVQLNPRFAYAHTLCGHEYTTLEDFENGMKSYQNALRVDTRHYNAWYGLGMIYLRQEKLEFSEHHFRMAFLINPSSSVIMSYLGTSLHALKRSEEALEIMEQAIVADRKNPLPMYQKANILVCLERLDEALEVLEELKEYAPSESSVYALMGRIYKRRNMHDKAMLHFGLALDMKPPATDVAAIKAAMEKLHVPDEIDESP

[2] = target: TDM1-P17L, yeast two-hybrid fusion (Arabidopsis thaliana) (UniProt Q9SUC3); assay: as above
[3] = target: T2, CDC20.1, yeast two-hybrid fusion (UniProt Q9SZA4); assay: as above
T2 sequence: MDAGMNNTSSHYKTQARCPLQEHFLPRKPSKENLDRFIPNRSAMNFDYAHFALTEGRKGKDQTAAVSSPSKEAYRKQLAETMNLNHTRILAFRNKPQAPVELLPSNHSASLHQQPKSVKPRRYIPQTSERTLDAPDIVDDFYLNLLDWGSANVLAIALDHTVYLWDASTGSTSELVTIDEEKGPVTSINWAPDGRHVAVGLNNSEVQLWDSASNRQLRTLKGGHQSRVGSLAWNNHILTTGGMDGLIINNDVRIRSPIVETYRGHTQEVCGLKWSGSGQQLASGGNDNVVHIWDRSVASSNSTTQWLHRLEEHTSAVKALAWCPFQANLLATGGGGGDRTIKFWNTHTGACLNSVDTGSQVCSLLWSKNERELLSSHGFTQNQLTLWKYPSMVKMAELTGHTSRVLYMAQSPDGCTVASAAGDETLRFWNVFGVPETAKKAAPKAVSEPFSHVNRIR

[4] = target: T3, TDM1 (THREE DIVISION MUTANT1), yeast two-hybrid fusion (Arabidopsis thaliana) (UniProt Q9SUC3); assay: as above
T3 sequence: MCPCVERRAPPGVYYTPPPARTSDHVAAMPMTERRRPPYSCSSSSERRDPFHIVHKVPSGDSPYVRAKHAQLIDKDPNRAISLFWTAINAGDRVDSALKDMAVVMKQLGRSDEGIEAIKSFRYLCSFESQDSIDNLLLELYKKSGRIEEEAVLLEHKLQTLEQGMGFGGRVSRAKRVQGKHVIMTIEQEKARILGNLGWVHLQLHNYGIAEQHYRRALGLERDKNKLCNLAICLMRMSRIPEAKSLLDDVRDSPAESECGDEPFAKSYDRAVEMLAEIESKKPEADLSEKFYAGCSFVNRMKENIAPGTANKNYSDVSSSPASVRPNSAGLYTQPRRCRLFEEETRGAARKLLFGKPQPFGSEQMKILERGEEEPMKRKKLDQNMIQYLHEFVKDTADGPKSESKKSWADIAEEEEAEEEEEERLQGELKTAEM

[5] = target: TDM1, split-YFP fusion (YFP^N::TDM1 and YFP^C::TDM1) (Arabidopsis thaliana) (UniProt Q9SUC3); assay: split reporter; BiFC with N-terminal YFP^N and YFP^C fusions co-infiltrated in N. benthamiana leaves, leaf epidermal cells scored after 3 or 4 days by confocal microscopy
[6] = target: T4, CDC20.1, split-YFP fusion (YFP^C::CDC20.1) (UniProt Q9SZA4); assay: as above
T4 sequence: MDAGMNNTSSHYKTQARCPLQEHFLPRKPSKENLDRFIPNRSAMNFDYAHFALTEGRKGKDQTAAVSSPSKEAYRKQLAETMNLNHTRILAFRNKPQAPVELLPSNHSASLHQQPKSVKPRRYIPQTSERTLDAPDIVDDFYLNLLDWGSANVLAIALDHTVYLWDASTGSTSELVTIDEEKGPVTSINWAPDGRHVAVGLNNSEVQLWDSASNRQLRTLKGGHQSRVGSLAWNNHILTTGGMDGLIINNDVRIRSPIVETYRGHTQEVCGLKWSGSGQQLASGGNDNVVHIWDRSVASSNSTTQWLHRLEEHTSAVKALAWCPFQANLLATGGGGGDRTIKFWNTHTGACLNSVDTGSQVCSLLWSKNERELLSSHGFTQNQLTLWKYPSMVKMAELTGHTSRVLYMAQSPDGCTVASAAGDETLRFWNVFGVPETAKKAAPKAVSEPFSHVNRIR

B1: TDM1-P17L, yeast two-hybrid fusion (protein, UniProt Q9SUC3 1-434)
chain: MCPCVERRAPPGVYYTLPPARTSDHVAAMPMTERRRPPYSCSSSSERRDPFHIVHKVPSGDSPYVRAKHAQLIDKDPNRAISLFWTAINAGDRVDSALKDMAVVMKQLGRSDEGIEAIKSFRYLCSFESQDSIDNLLLELYKKSGRIEEEAVLLEHKLQTLEQGMGFGGRVSRAKRVQGKHVIMTIEQEKARILGNLGWVHLQLHNYGIAEQHYRRALGLERDKNKLCNLAICLMRMSRIPEAKSLLDDVRDSPAESECGDEPFAKSYDRAVEMLAEIESKKPEADLSEKFYAGCSFVNRMKENIAPGTANKNYSDVSSSPASVRPNSAGLYTQPRRCRLFEEETRGAARKLLFGKPQPFGSEQMKILERGEEEPMKRKKLDQNMIQYLHEFVKDTADGPKSESKKSWADIAEEEEAEEEEEERLQGELKTAEM
Question: For B1, which binding [1] is on record?
Answer: binds

Question: And the binding [2]?
Answer: binds

Question: What about the binding [3] of the same binder?
Answer: binds

Question: What about the binding [4] of the same binder?
Answer: binds

B2: TDM1^1-294, yeast two-hybrid fusion (domain or fragment, UniProt Q9SUC3 1-294)
chain: MCPCVERRAPPGVYYTPPPARTSDHVAAMPMTERRRPPYSCSSSSERRDPFHIVHKVPSGDSPYVRAKHAQLIDKDPNRAISLFWTAINAGDRVDSALKDMAVVMKQLGRSDEGIEAIKSFRYLCSFESQDSIDNLLLELYKKSGRIEEEAVLLEHKLQTLEQGMGFGGRVSRAKRVQGKHVIMTIEQEKARILGNLGWVHLQLHNYGIAEQHYRRALGLERDKNKLCNLAICLMRMSRIPEAKSLLDDVRDSPAESECGDEPFAKSYDRAVEMLAEIESKKPEADLSEKFYAG
Question: Which binding [4] does the source give for B2 here?
Answer: binds

B3: TDM1, split-YFP fusion (YFP^N::TDM1 and YFP^C::TDM1) (protein, UniProt Q9SUC3 1-434)
chain: MCPCVERRAPPGVYYTPPPARTSDHVAAMPMTERRRPPYSCSSSSERRDPFHIVHKVPSGDSPYVRAKHAQLIDKDPNRAISLFWTAINAGDRVDSALKDMAVVMKQLGRSDEGIEAIKSFRYLCSFESQDSIDNLLLELYKKSGRIEEEAVLLEHKLQTLEQGMGFGGRVSRAKRVQGKHVIMTIEQEKARILGNLGWVHLQLHNYGIAEQHYRRALGLERDKNKLCNLAICLMRMSRIPEAKSLLDDVRDSPAESECGDEPFAKSYDRAVEMLAEIESKKPEADLSEKFYAGCSFVNRMKENIAPGTANKNYSDVSSSPASVRPNSAGLYTQPRRCRLFEEETRGAARKLLFGKPQPFGSEQMKILERGEEEPMKRKKLDQNMIQYLHEFVKDTADGPKSESKKSWADIAEEEEAEEEEEERLQGELKTAEM
Question: For B3, which binding [5] is on record?
Answer: binds

Question: What about the binding [6] of the same binder?
Answer: binds
